The supplement of paper PMC8728848
The list shows a part of the results.

How the values were obtained:
Test in all cases: glycan array binding signal (z-score within array); higher = stronger binding
Details in all cases: glycan notation: IUPAC condensed, linker removed
[1] = target: Gal(b1-3)GlcNAc(b1-2)Man(a1-3)[Gal(b1-3)GlcNAc(b1-2)Man(a1-6)]Man(b1-4)GlcNAc(b1-4)GlcNAc
Procedure, shortened: (§1)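 Negative Z-scores can be read as non-binding. The Z-score is calculated within each array and then averaged across arrays of one protein sequence at different concentrations or buffers and across linkers. Arrays, 3228 in all, were curated from the Consortium for Functional Glycomics database and kept only where the protein sequence was available.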

[2] = target: Gal(b1-3)GlcNAc(b1-2)Man(a1-3)[Gal(b1-3)GlcNAc(b1-2)Man(a1-6)]Man(b1-4)GlcNAc(b1-4)[Fuc(a1-6)]GlcNAc
Procedure, shortened: as §1

[3] = target: Gal(b1-3)GlcNAc(b1-2)Man(a1-3)[GlcNAc(b1-4)][Gal(b1-3)GlcNAc(b1-2)Man(a1-6)]Man(b1-4)GlcNAc(b1-4)GlcNAc
Procedure, shortened: as §1

[4] = target: Gal(b1-3)GlcNAc(b1-2)[Gal(b1-3)GlcNAc(b1-6)]Man(a1-6)[Gal(b1-3)GlcNAc(b1-2)Man(a1-3)]Man(b1-4)GlcNAc(b1-4)GlcNAc
Procedure, shortened: as §1

[5] = target: Gal(b1-3)GlcNAc(b1-3)Gal(b1-3)GlcNAc
Procedure, shortened: as §1

[6] = target: Gal(b1-3)GlcNAc(b1-3)Gal(b1-4)Glc
Procedure, shortened: as §1

[7] = target: Gal(b1-3)GlcNAc(b1-3)Gal(b1-4)GlcNAc
Procedure, shortened: as §1

[8] = target: Gal(b1-3)GlcNAc(b1-3)Gal(b1-4)GlcNAc(b1-2)Man(a1-3)[Gal(b1-3)GlcNAc(b1-3)Gal(b1-4)GlcNAc(b1-2)Man(a1-6)]Man(b1-4)GlcNAc(b1-4)GlcNAc
Procedure, shortened: as §1

[9] = target: Gal(b1-3)GlcNAc(b1-3)Gal(b1-4)GlcNAc(b1-2)[Gal(b1-3)GlcNAc(b1-3)Gal(b1-4)GlcNAc(b1-6)]Man(a1-6)[Gal(b1-3)GlcNAc(b1-3)Gal(b1-4)GlcNAc(b1-2)Man(a1-3)]Man(b1-4)GlcNAc(b1-4)[Fuc(a1-6)]GlcNAc
Procedure, shortened: as §1

[10] = target: Gal(b1-3)GlcNAc(b1-3)Gal(b1-4)GlcNAc(b1-3)Gal(b1-4)GlcNAc(b1-2)[Gal(b1-3)GlcNAc(b1-3)Gal(b1-4)GlcNAc(b1-3)Gal(b1-4)GlcNAc(b1-6)]Man(a1-6)[Gal(b1-3)GlcNAc(b1-3)Gal(b1-4)GlcNAc(b1-3)Gal(b1-4)GlcNAc(b1-2)Man(a1-3)]Man(b1-4)GlcNAc(b1-4)[Fuc(a1-6)]GlcNAc
Procedure, shortened: as §1

[11] = target: Gal(b1-3)GlcNAc(b1-3)Gal(b1-4)GlcNAc(b1-6)[Gal(b1-3)GlcNAc(b1-3)]Gal(b1-4)Glc
Procedure, shortened: as §1

[12] = target: Gal(b1-3)GlcNAc(b1-3)Gal(b1-4)[Fuc(a1-3)]GlcNAc
Procedure, shortened: as §1

[13] = target: Gal(b1-3)GlcNAc(b1-3)Gal(b1-4)[Fuc(a1-3)]GlcNAc(b1-6)[Gal(b1-3)GlcNAc(b1-3)]Gal(b1-4)Glc
Procedure, shortened: as §1

[14] = target: Gal(b1-3)GlcNAc(b1-3)GalNAc
Procedure, shortened: as §1

[15] = target: Gal(b1-3)GlcNAc(b1-6)Gal(b1-4)GlcNAc
Procedure, shortened: as §1

[16] = target: Gal(b1-3)GlcNAc(b1-6)GalNAc
Procedure, shortened: as §1

[17] = target: Gal(b1-3)GlcNAc(b1-6)[Gal(b1-3)]GalNAc
Procedure, shortened: as §1

Gal(b1-3)GlcNAc6S = target: Gal(b1-3)GlcNAc6S
Procedure, shortened: as §1

[18] = target: Gal(b1-3)[Fuc(a1-4)]GlcNAc
Procedure, shortened: as §1

[19] = target: Gal(b1-3)[Fuc(a1-4)]GlcNAc(b1-2)Man
Procedure, shortened: as §1

[20] = target: Gal(b1-3)[Fuc(a1-4)]GlcNAc(b1-2)Man(a1-3)[Gal(b1-3)[Fuc(a1-4)]GlcNAc(b1-2)Man(a1-6)]Man(b1-4)GlcNAc(b1-4)[Fuc(a1-6)]GlcNAc
Procedure, shortened: as §1

[21] = target: Gal(b1-3)[Fuc(a1-4)]GlcNAc(b1-3)Gal(b1-3)[Fuc(a1-4)]GlcNAc
Procedure, shortened: as §1

[22] = target: Gal(b1-3)[Fuc(a1-4)]GlcNAc(b1-3)Gal(b1-4)[Fuc(a1-3)]GlcNAc
Procedure, shortened: as §1

[23] = target: Gal(b1-3)[Fuc(a1-4)]GlcNAc(b1-6)GalNAc
Procedure, shortened: as §1

[24] = target: Gal(b1-3)[GlcNAc(b1-6)]GalNAc
Procedure, shortened: as §1

[25] = target: Gal(b1-3)[Neu5Ac(a2-6)]GalNAc
Procedure, shortened: as §1

[26] = target: Gal(b1-3)[Neu5Ac(a2-6)]GlcNAc(b1-4)Gal(b1-4)Glc
Procedure, shortened: as §1

[27] = target: Gal(b1-3)[Neu5Ac(b2-6)]GalNAc
Procedure, shortened: as §1

Gal(b1-4)Gal = target: Gal(b1-4)Gal
Procedure, shortened: as §1

[28] = target: Gal(b1-4)GalNAc(a1-3)[Fuc(a1-2)]Gal(b1-4)GlcNAc
Procedure, shortened: as §1

B1: InvD YPIII (Yersinia pseudotuberculosis), B1JSC0 (protein)
chain: MIKYFSFFKKPEPIVGILPNRQSHHILPTHIRRVAWGTLLLQLFIPLSVSFSPAIAAMKASKADTMVSYSSTEPYVLGSGETVAMVAKKYGITVDELKKINIYRTFSRPFTALTTGDEIDIPRKASPFSVDNNKDNRLSVENTLAGHAVAGATALSNGDVAKSGERMVRSAASNEFNNSAQQWLSQFGTARVQLNINDDFHLDGSAADVLIPLYDNEKSILFTQLGARNKDSRNTVNMGAGVRTFQGNWMYGANTFFDNDLTGKNRRIGVGAEAWTDYLKLSANNYFGITDWHQSRDFIDYNERPANGYDLRAEAYLPSYPQLGGKAMYEKYRGDDVALFGKDNRQKNPHAITAGVNYTPIPLVTIGAEHRAGKGGQNDSNINFQLNYRLGETWQSHIDPSAVAASRTLAGSRYDLVERNNHIVLDYQKQNLVRLSLPDSLAGDPFSQLSVTAQVTATHGLERIDWQSAELMAAGGVLKQTSKNGLEITLPEYQMNRTGGNSYILNAIAYDTQGNASSQASMLITVNAQKINIANSTLVAVPINIEANNSDTSVVTLTLKDDNNIPVTGQDVTFLSPLGTLSAMTDSGNGVYTATLTAGTVSGTTAVSSNINGSALDMTPATVTLNGNSGELSITHSMLVAAPVNIEANGSDTSVVTLTLRDSNNNPVTGQTVTFAGTLGTLGAVTEGSSGVYTATLTAGIMVGTSSITASVNSTALGVTPATVTLNGDSGNLSTTNSTLVAAPVNIEANSSDTSVVTLTLRDNNNNPVTGQTVVFTSTLGTLGNVTEQASGVYTATLTAGTVSGVASLSVSVGGNALGVTPATVTLNGDSGNLSTTNSTLVAAPVNIEANSSDTSVVTLTLRDNNNNPVTGQTVNFAGTLGTLGTVSEGSSGVYTTTLTAGTVAGVASLSVNVGGNALGVTPATVTLNGNSGNLSATNSTLVAAPVNIEANSSDTSVVTLTLRDNNNNPVTGQTVAFTSTLGTLGNVTEQASGVYTATLTAGTVSGVASLSVSVNSNALGVTPATVTLNGDSGNLSTTNSTLVAAPVNIEANSSDTSVVTLTLRDNNNNPVTGQTVAFTSTLGTLGNVTEQASGLYTATLTAGTVSGVASLSVNVGGNALGVTPATVTLNGDSGNLSATNSTLVAAPVNIEANSSDTSVVTLTLRDNNNNPVTGQTVAFTSTLGTLGNVTEQASGLYTATLTAGTVSGVASLSVNVGGTALGVTPATVTLNGDSGNLSTTNSTLVAAPVNIEANSSDTSVVTLTLRDNNNNPVTGQTVAFTSTLGTLGNVTEQASGLYTATLTAGTVSGVASLSVSVNSTALGVTPATVTLNGDSGNLSTTNSTLVAAPVNIEANSSDTSVVTLTLRDNNNNPVTGQTVAFTSTLGTLGNVTEQASGVYTATLTAGTVAGVASLSVNVGGNALGVTPATVTLNGDSGNLSTTNSTLVAAPVNIEANSSDTSVVTLTLRDNNNNPVTGQTVAFTSTLGTLGNVTEQASGVYTATLTAGTVSGVASLSVSVGSSALGVTPATVTLNGDSGNLSTTNSTLVAAPVNIEANNSDTSVVTLTLRDNNNNPVTGQTVAFTSTLGTLGNVTEQASGVYTATLTAGTVSGVASLSVSVNSNALGVTPATVTLNGDSGNLSTTNSTLVAAPVNIEANSSDTSVVTLTLRDNNNNPVTGQTVVFTSTLGTLGNVTEQASGLYTATLTAGTVSGVASLSVSVGGNALGVTGNITLAPGALDAARSILAVNKPSINADDRIGSTITFTAQDAQGNAITGLDIAFMTDLENSQIMTLVDHNDGTYTANINGTQTGIANIAVQSSGATIAGLAATMVTITPGAWNTTQATPVMTVALPITTCQSSSGVYKRYYIGIVTHELYDNYGNEISGILTYNLGAGRYTTVTSQNSSVSGSNGLTRRSNSPVSHFILTSDAYTSQAACYAERIANVNVTITVTAITDDFKTSAVNKVFILGTGSN
glycan array binding signal (z-score) [1]: 0.108 | glycan array binding signal (z-score) [2]: 0.497 | glycan array binding signal (z-score) [3]: 0.074 | glycan array binding signal (z-score) [4]: -0.201 | glycan array binding signal (z-score) [5]: -0.224 | glycan array binding signal (z-score) [6]: -0.069 | glycan array binding signal (z-score) [7]: -0.261 | glycan array binding signal (z-score) [8]: -0.358 | glycan array binding signal (z-score) [9]: -0.065 | glycan array binding signal (z-score) [10]: 0.357 | glycan array binding signal (z-score) [11]: -0.192 | glycan array binding signal (z-score) [12]: -0.098 | glycan array binding signal (z-score) [13]: -0.245 | glycan array binding signal (z-score) [14]: -0.241 | glycan array binding signal (z-score) [15]: -0.168 | glycan array binding signal (z-score) [16]: -0.16 | glycan array binding signal (z-score) [17]: -0.299 | glycan array binding signal (z-score) (Gal(b1-3)GlcNAc6S): 0.273 | glycan array binding signal (z-score) [18]: -0.119 | glycan array binding signal (z-score) [19]: -0.101 | glycan array binding signal (z-score) [20]: 0.771 | glycan array binding signal (z-score) [21]: -0.223 | glycan array binding signal (z-score) [22]: -0.071 | glycan array binding signal (z-score) [23]: -0.151 | glycan array binding signal (z-score) [24]: -0.2 | glycan array binding signal (z-score) [25]: 0.137 | glycan array binding signal (z-score) [26]: -0.184 | glycan array binding signal (z-score) [27]: -0.06 | glycan array binding signal (z-score) (Gal(b1-4)Gal): -0.168 | glycan array binding signal (z-score) [28]: -0.092
